Experimental data published in the supplement of paper PMC5499739.
Over roughly 16,000 sequences, “Z-score” has its median near -0.37; the highest 2% begin near 3.1. The list shows a part of the results.

tested on: RBM10 RRM1-ZnF-RRM2 (GST-tagged construct); experiment: RNAcompete 7-mer binding Z-score; higher = stronger binding preference
Procedure, shortened: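 Each heptamer motif was given a one-sided Z-score for enrichment across the probes that contained it. GST-tagged RBM10 constructs (20 pmol) were combined with 1.5 nmol of a designed pool of 241 399 RNAs of up to 41 nt, transcribed from microarray-derived DNA templates. Binding took place in 1 ml Hepes pH 7.8 buffer containing KCl, NaCl, glycerol, DTT, BSA and glutathione Sepharose beads for 30 min at 4°C. After four 2-min washes at 4°C, bound RNA was identified by microarray hybridisation.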

| Sequence | RNAcompete 7-mer binding Z-score |
| --- | --- |
| CCGAGAA | -0.464 |
| AUACGUU | -0.482 |
| AGUCGGA | 0.993 |
| AGUAGCG | 0.61 |
| GAGACAA | 0.45 |
| UAGCGCU | -0.479 |
| GUCCUCU | -0.664 |
| UUGAAUU | -0.606 |
| CAUAUUU | -0.803 |
| ACAGAUA | -0.304 |
| AUCAAGA | -0.147 |
| CCCCAUC | -0.551 |
| AUCGCUU | -0.923 |
| GCUCUCC | -0.748 |
| UAUGCUC | -0.865 |
| UGUCUAC | -0.719 |
| GUCCUGA | -0.592 |
| AGGUGUC | 0.53 |
| UCAACCA | -0.551 |
| CAAAUCA | -0.508 |
| AUACCAU | -0.646 |
| ACAGACG | 0.253 |
| GGUGAUA | 1.81 |

| Sequence | RNAcompete 7-mer binding Z-score |
| --- | --- |
| GGCGCAU | 0.217 |
| CGAAUUC | -0.653 |
| CCCGAUA | -0.715 |
| CAUUCUU | -0.85 |
| CGAUAGA | 0.00216 |
| CAAACAC | -0.515 |
| CAAUAUC | -0.431 |
| UCGGAUU | -0.398 |
| AUGAAGU | 0.439 |
| CCUCUGC | -0.912 |
| GGCACUG | 0.545 |
| AAACGAU | 0.13 |
| CCAGUUU | -0.821 |
| CAACUAU | -0.511 |
| CCAAGGC | -0.0634 |
| AGCACAG | 0.217 |
| UUAUUUU | -0.683 |
| UCCGGAU | -0.0925 |
| UUGACCG | -0.653 |
| CACUUUC | -0.985 |
| UUGUUUG | -0.322 |
| AACGCCU | -0.963 |
| UGUUAAC | -0.581 |

| Sequence | RNAcompete 7-mer binding Z-score |
| --- | --- |
| CCCAAAA | -0.803 |
| CCGUUGA | -0.46 |
| AGUUGAU | 0.144 |
| GAAUGCU | -0.322 |
| AGCAUCG | -0.337 |
| CGAGUCG | -0.0962 |
| UCCAUCC | -0.602 |
| GCGCGCA | -0.0998 |
| UAGGUAA | 1.96 |
| AAUCGAA | 0.0167 |
| CGUUUGA | -0.748 |
| GCGUAUU | -0.289 |
| GUCUUGA | -0.672 |
| GCUGAGG | 1.16 |
| ACGGCGU | 0.304 |
| UUCCGUC | -0.726 |
| CAGUAGG | 2.35 |
| CCUGCUA | -0.992 |
| AAGCAAC | -0.0343 |
| UUAGGCG | 0.902 |
| GGCGGCC | 0.592 |
| AUAGACU | -0.435 |
| GCAAAUU | -0.369 |

| Sequence | RNAcompete 7-mer binding Z-score |
| --- | --- |
| ACGGGUC | 1.42 |
| AGUGCCC | -0.5 |
| AAGUGAG | 1.23 |
| UACCUCU | -0.868 |
| ACCCAGC | -0.785 |
| CGCUCUU | -0.814 |
| AUGAGAU | 0.454 |
| AGCAAGC | 0.00216 |
| CCAAUUU | -0.992 |
| CGGGAAU | 1.31 |
| CGUUCUA | -0.788 |
| AACUCAA | -0.482 |
| GCCUUUA | -0.876 |
| UUGUAUG | -0.14 |
| CAACGGU | 0.0969 |
| CGUUGUU | -0.446 |
| UGGGGAG | 3.37 |
| AGUAGGA | 3.08 |
| CUAAUAC | -0.683 |
| ACUCCGU | -0.901 |
| AUUCCAA | -0.526 |
| UCGAGAG | 0.213 |
| UACAGAG | 0.206 |

| Sequence | RNAcompete 7-mer binding Z-score |
| --- | --- |
| AGCUAGG | 1.1 |
| AAGGUGC | 2.55 |
| AUAUAAC | -0.519 |
| GUGGGCG | 3.37 |
| GAUAGUG | 1.27 |
| UGUAACG | -0.169 |
| UUCGAGG | 0.297 |
| CAGGUAU | 0.822 |
| UACAGUC | -0.278 |
| GAGUUCG | -0.0161 |
| UCCCAUC | -0.613 |
| UUACUCA | -0.664 |
| GCUCGAG | -0.0488 |
| GGGUGUC | 2.11 |
| CAGACUU | -0.872 |
| AUCUGCU | -0.876 |
| CGCAAGC | -0.548 |
| GUGGUAC | 1.25 |
| GUUUUGU | 0.024 |
| GCUUCCA | -0.726 |
| UGAGUUA | 0.0204 |
| GCUACUG | -0.38 |
| GAUGAUC | -0.238 |

| Sequence | RNAcompete 7-mer binding Z-score |
| --- | --- |
| GCGACGG | 1.59 |
| GUGACGG | 2.15 |
| AUUUCAG | -0.526 |
| GUGUUGA | 0.41 |
| GUGACAC | -0.0707 |
| UACCCGU | -0.737 |
| GGUAAAG | 3.35 |
| GACCCUU | -1 |
| UAUCUCU | -0.766 |
| AGUCUGG | 0.0641 |
| CACAACU | -0.668 |
| AUUGUCU | -0.77 |
| CUACUAC | -0.865 |
| CUAUUUA | -0.901 |
| GUGCGCG | 0.712 |
| GCAACAG | 0.348 |
| CGACUGG | 0.192 |
| ACUCCUG | -0.744 |
| GUGGGGU | 4.45 |
| AUUCACC | -0.697 |
| CGCUCUC | -0.602 |
| CCCGGUG | 0.104 |
| AGGUAUA | 1.24 |

| Sequence | RNAcompete 7-mer binding Z-score |
| --- | --- |
| CAUAGCU | -0.675 |
| UCAUGUG | -0.235 |
| CCUAGCU | -0.857 |
| UGCCAAA | -0.617 |
| ACCUGGU | -0.73 |
| CACGCUC | -0.541 |
| GUUCGGU | 0.148 |
| CCCAAUG | -0.595 |
| UCUCGAA | -0.624 |
| GCUGAUG | 0.0641 |
| CUUGUUG | -0.799 |
| UUGACCC | -0.701 |
| ACUGAGU | -0.107 |
| CAGUAAG | 0.461 |
| AUGAGUA | 0.672 |
| CGAUGGC | 0.618 |
| GUACGGG | 2.96 |
| AGCGACA | 0.374 |
| GAGUGAG | 2.04 |
| AAGUAUU | -0.344 |
| GCUUAGG | 0.217 |
| AGAUCAC | -0.799 |
| CGGCCAU | -0.85 |

| Sequence | RNAcompete 7-mer binding Z-score |
| --- | --- |
| UAGUAUC | -0.424 |
| UCAUUAU | -0.621 |
| GAGUGGU | 2.52 |
| AAAGCAA | 0.563 |
| GAGAGGC | 1.11 |
| GUUCUGA | -0.522 |
| ACACUCA | -0.686 |
| UUAAGUC | -0.562 |
| CGAUUUU | -0.799 |
| GCCCCAA | -0.653 |
| CUCACAC | -0.686 |
| ACUUACG | -0.723 |
| AUAUUAG | 0.0313 |
| GUUUUUG | -0.125 |
| CCCGUCA | -0.683 |
| UGCUGCA | -0.464 |
| AGUGUAU | 0.479 |
| GUAUAUG | 0.195 |
| CAUCACA | -0.639 |
| GAAUGUU | -0.0306 |
| AAAGGAC | 2.6 |
| CAUCCUU | -0.832 |
